This is one part of the list. At the low end of the ranking the order means little.

We go through 172 sequences from paper PMC6212790.

The target of this test is T1, GST-Rok (full length) (UniProt O34857).
T1 sequence: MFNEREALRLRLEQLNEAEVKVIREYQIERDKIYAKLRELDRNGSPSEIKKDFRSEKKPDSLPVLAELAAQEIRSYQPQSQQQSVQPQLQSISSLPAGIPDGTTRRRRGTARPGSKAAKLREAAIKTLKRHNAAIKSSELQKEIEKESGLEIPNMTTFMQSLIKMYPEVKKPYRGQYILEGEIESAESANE
The test is described as follows: protein binding microarray.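 Further: rank score from −0.5 (least bound) to 0.5 (best bound).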 The note with it: Rok is a gene silencer of Bacillus subtilis; high values mean tight binding; most listed sequences are background and not binding sites; double strand, one strand shown.
Take GATGGTGC: the binding signal was -0.158 E-score. As for AACAGGTA, the figure is 0.179 E-score; as for GTCCTCAC, -0.0182 E-score; as for ACGTGCCG, -0.0818 E-score. As for GTAAGGTA, the binding signal came to 0.18 E-score. On to CGGAGGAG, for which the binding signal is -0.327 E-score.

As to ATCTCCAA, the binding signal was 0.128 E-score.

As to GACGTCCC, the binding signal is -0.304 E-score. In turn, ATATTTCC showed a binding signal of 0.213 E-score.

Turning to GGTTCGTA, the binding signal was -0.177 E-score.

Consider AGTGACGA, for which the binding signal is -0.0568 E-score. For the sequence CCGAGCCG, the binding signal was -0.35 E-score. AAAGGGTA: the binding signal is -0.00849 E-score. For AAGTCCTC the value was -0.0846 E-score; for CGCCAAAA, -0.166 E-score. The sequence AACGTGAA had a binding signal of 0.0673 E-score.

In the case of CCCCTTGC, the binding signal was -0.406 E-score. As for CTTCTGCA, the binding signal was 0.0619 E-score. On to CACCCGTC, for which the binding signal is -0.232 E-score.

Regarding CGCGTACG, the binding signal is -0.0735 E-score. With GGTGAACC, the binding signal was -0.216 E-score.

CAGCACAC returned a binding signal of -0.204 E-score. The sequence AATTACAG displayed a binding signal of 0.324 E-score.

With GACCTGCA, the binding signal was -0.184 E-score. As for ACTGTAAG, the binding signal is -0.0329 E-score.

As to ATCACCCG, the binding signal was 0.00491 E-score. Turning to CCAGGAGA, the binding signal was -0.149 E-score. For CCCGTGTA the value was -0.0222 E-score. Sequence AAGCGGCT yielded a binding signal of 0.0263 E-score. Regarding GTATTTAA, the binding signal is 0.285 E-score. Sequence AGAATCAA showed a binding signal of 0.138 E-score. The sequence AGAGCTCC gave a binding signal of -0.195 E-score.

With ATCCTATA, the binding signal stood at 0.271 E-score.

Sequence GCTAAGAC registered a binding signal of -0.105 E-score. CCAAGGAG registered a binding signal of -0.331 E-score. For CACCGGGC, the binding signal is -0.327 E-score. Turning to AGAAAGAG, the binding signal is -0.197 E-score. The sequence ACCTGGCT came in with a binding signal of -0.172 E-score. For GGACAACC the value was -0.173 E-score; for CTGAGAGA, 0.0113 E-score. Regarding ACGGGTAT, the binding signal is -0.0718 E-score. ACACTAGG returned a binding signal of -0.0519 E-score. The sequence GGAGAGAC came in with a binding signal of -0.158 E-score. The sequence CACTACGA came in with a binding signal of 0.174 E-score. The sequence CGCGGAAG had a binding signal of -0.0367 E-score. The sequence ACATACGT returned a binding signal of 0.169 E-score.

Sequence CTGGTCGA showed a binding signal of -0.0289 E-score. Regarding CAACCTCC, the binding signal was -0.0444 E-score. In the case of CCTTGCGA, the binding signal is -0.33 E-score.

For the sequence AACCATGA, the binding signal was 0.103 E-score. GAACCTCA returned a binding signal of -0.113 E-score. For ATGGAGAC the value was 0.0297 E-score; for GCGGGTAA, -0.237 E-score. In turn, CAAAGAAG showed a binding signal of -0.198 E-score.

As for CTAGCCGC, the binding signal is -0.287 E-score. Regarding ACTAGGAG, the binding signal was 0.0251 E-score.

Take CCACCCGC: the binding signal was -0.244 E-score.

The sequence CAACACCA gave a binding signal of 0.05 E-score. The sequence GAGTAGAA yielded a binding signal of 0.202 E-score. The sequence ATACTATG had a binding signal of 0.271 E-score. For GTAACGCA the value was 0.0539 E-score; for ATCAAGTG, 0.0955 E-score. In turn, GCATACAA displayed a binding signal of 0.155 E-score.

Turning to GTACTCCA, the binding signal was -0.0627 E-score.

AACGTTGG yielded a binding signal of -0.192 E-score. As for CCGCGTCA, the figure is -0.155 E-score; as for GGTCGCCA, -0.183 E-score; as for ATTGCTAA, 0.231 E-score.

CTGTTTTC: the binding signal is 0.0546 E-score. In turn, ACACCCAG gave a binding signal of -0.102 E-score. For the sequence AATGAGGG, the binding signal is -0.0642 E-score. As to ACCATTTC, the binding signal was found to be 0.234 E-score. As for ATGCGCGG, the figure is -0.158 E-score; as for AATCTTTC, -0.00113 E-score; as for CCAAACGA, 0.042 E-score.

Consider AGTACTCA, for which the binding signal was determined as 0.0122 E-score. For the sequence CAGACGAG, the binding signal was -0.154 E-score. For CTTGTCCC the value was -0.205 E-score. As for GAGCTGAA, the binding signal was -0.2 E-score. As for AACGGCGG, the binding signal was -0.0818 E-score. GCGTCGCA gave a binding signal of -0.0407 E-score.

In turn, CCTCACAA came in with a binding signal of -0.0407 E-score. As for CGTCGCTC, the figure is -0.168 E-score; as for GAACTTCC, -0.00257 E-score; as for AAGTATGG, 0.216 E-score. ATGACCGA had a binding signal of 0.0852 E-score.

On to GCGTGTGA, for which the binding signal was -0.0972 E-score. Consider TAGAACAA, for which the binding signal turned out to be 0.119 E-score.

On to ATGGAGTG, for which the binding signal came out at 0.105 E-score. Take AGTACGTC: the binding signal is 0.0485 E-score.

Consider CATCTAGG, for which the binding signal was -0.00407 E-score. Take ACTTGTAC: the binding signal stood at 0.345 E-score. Sequence CAACAATA had a binding signal of 0.0121 E-score.

GGGTGAAC had a binding signal of -0.0789 E-score.

In turn, TCAAACGA displayed a binding signal of 0.0971 E-score. As for AAGCATTG, the figure is 0.0781 E-score; as for CGATCCCC, -0.348 E-score; as for AAGGTCCA, -0.187 E-score. ACCATGAA gave a binding signal of -0.0879 E-score. The sequence GGTTCCAA came in with a binding signal of -0.225 E-score.

As for CAATCAGC, the binding signal was found to be 0.0107 E-score. For CCGGACGA, the binding signal was -0.173 E-score.

Consider AACCCCAC, for which the binding signal was -0.24 E-score. CTAAAGCC displayed a binding signal of -0.235 E-score.

CGTCCAAA yielded a binding signal of -0.244 E-score. For AATGGCAA, the binding signal is -0.000442 E-score.

CAGTGAAA returned a binding signal of -0.014 E-score.

Sequence CTTGAATA registered a binding signal of -0.0285 E-score. The sequence GTGGCTCA yielded a binding signal of -0.145 E-score. As for CTCAGTGA, the binding signal was -0.0959 E-score. ATGTGGGG: the binding signal is -0.212 E-score. CGTTTTAG registered a binding signal of 0.0373 E-score.

As to CACTCATC, the binding signal is -0.0594 E-score.

AGGGAATA came in with a binding signal of 0.00647 E-score.

In the case of ATCTCTCG, the binding signal amounted to 0.0332 E-score. As to GTTAAGAA, the binding signal was -0.11 E-score.

In the case of GATGATAA, the binding signal amounted to 0.134 E-score. TACAGAGA came in with a binding signal of 0.21 E-score.

Consider CCTACCTA, for which the binding signal is 0.22 E-score.

The sequence CAGGGTCA returned a binding signal of 0.0548 E-score. For TCCACTAA, the binding signal was determined as 0.126 E-score. CGCTGTAG gave a binding signal of 0.104 E-score. As for CGGGTATC, the figure is -0.0638 E-score; as for CAATGAGG, -0.219 E-score.

For the sequence ACCTCGCA, the binding signal was determined as 0.0865 E-score. For AGTCCTGA the value was -0.162 E-score.

The sequence GTGTATTA had a binding signal of 0.205 E-score. As for AGTGGGAG, the binding signal was -0.296 E-score.

The sequence CGGTCAGC yielded a binding signal of -0.261 E-score.

Turning to GCTGCTAC, the binding signal is 0.0943 E-score. Regarding ATGGCTGG, the binding signal was -0.0984 E-score. Sequence GCTGGAAA registered a binding signal of -0.121 E-score. AGACACCC: the binding signal was -0.0401 E-score.

CATTATAC returned a binding signal of 0.265 E-score.

AGAGTGAT: the binding signal was found to be 0.0166 E-score.

In turn, ACGTACCG had a binding signal of -0.15 E-score. Sequence CTGTCTCC returned a binding signal of -0.277 E-score.

Turning to AGTCGGCG, the binding signal was -0.221 E-score. As for AACCGTCT, the figure is -0.0545 E-score; as for CAACCAAA, 0.0924 E-score. In turn, AGAACGTC had a binding signal of -0.116 E-score. AAAGGCCC displayed a binding signal of -0.259 E-score. ACCTTTTA had a binding signal of 0.051 E-score. In turn, CGAACTTC had a binding signal of 0.118 E-score. Consider GGGTCAGA, for which the binding signal was -0.201 E-score. As for CCAACTAC, the figure is 0.123 E-score. For AGATACAT the value was 0.229 E-score.

CCCACCTC yielded a binding signal of -0.236 E-score. On to ATTGGTTA, for which the binding signal is 0.266 E-score.

The sequence CCCCACAC gave a binding signal of -0.39 E-score. The sequence CATCTTAG yielded a binding signal of 0.118 E-score. With ATCCGATC, the binding signal was 0.0265 E-score.

Turning to ACCTCTCA, the binding signal is -0.14 E-score. As to CGACTTAA, the binding signal came out at 0.0646 E-score. The sequence CACCGACA came in with a binding signal of -0.203 E-score.

Take TGAGATAA: the binding signal was determined as 0.0648 E-score. As to AATCGTAA, the binding signal was 0.136 E-score. As to AGCACGGG, the binding signal was -0.212 E-score. For GGCGTTCA the value was -0.194 E-score. As for CGCCATGC, the figure is -0.319 E-score; as for CCGTCTGA, -0.144 E-score.

AAAATGCT came in with a binding signal of 0.0308 E-score.

AGCATAAG displayed a binding signal of -0.0364 E-score.

Sequence AGTGAACA registered a binding signal of 0.00621 E-score. CACCCGCC yielded a binding signal of -0.22 E-score. The sequence CCGGCTTC gave a binding signal of -0.134 E-score. ACCCGCGA yielded a binding signal of -0.165 E-score. As for CCGAATCC, the binding signal was -0.0753 E-score. The sequence ATACGTGC gave a binding signal of 0.12 E-score. As for CCGTGCGC, the binding signal was -0.21 E-score. Sequence CAGAGCCC showed a binding signal of -0.348 E-score.

For the sequence ATATTCAC, the binding signal came to 0.265 E-score.
